MIC of N. gonorrhoeae strains collected 1971-2005, agar dilution (CLSI M07); ranges 0.03-64 mg/L (penicillin, azithromycin), 0.015-1 (cefixime, ceftriaxone), 0.5-256 (spectinomycin); higher = less susceptible. No active / inactive call per row; the paper counts cefixime and ceftriaxone above 0.25 and azithromycin above 1 mg/L as non-susceptible. The source says 'penicillin'; penicillin G is assumed. Isolates are numbered anew.
Legend:
Test in all cases: Agar dilution by CLSI M07.
[1] = compound: C=CC1=C(C(=O)O)N2C(=O)[C@@H](NC(=O)/C(=N\OCC(=O)O)c3csc(N)n3)[C@H]2SC1 [cefixime]
[2] = compound: CC1(C)S[C@@H]2[C@H](NC(=O)Cc3ccccc3)C(=O)N2[C@H]1C(=O)O [penicillin G]
[3] = compound: CC[C@H]1OC(=O)[C@H](C)[C@@H](O[C@H]2C[C@@](C)(OC)[C@@H](O)[C@H](C)O2)[C@H](C)[C@@H](O[C@@H]2O[C@H](C)C[C@H](N(C)C)[C@H]2O)[C@](C)(O)C[C@@H](C)CN(C)[C@H](C)[C@@H](O)[C@]1(C)O [azithromycin]
[4] = compound: CN[C@@H]1[C@H](O)[C@H](NC)[C@H]2O[C@@]3(O)C(=O)C[C@@H](C)O[C@H]3O[C@@H]2[C@H]1O [spectinomycin]
[5] = compound: CO/N=C(\C(=O)N[C@@H]1C(=O)N2C(C(=O)O)=C(CSc3nc(=O)c(O)nn3C)CS[C@H]12)c1csc(N)n1 [ceftriaxone]

Row | Test System | MIC [1] [mg/L] | MIC [2] [mg/L] | MIC [3] [mg/L] | MIC [4] [mg/L] | MIC [5] [mg/L]
1 | Neisseria gonorrhoeae isolate 1 (GyrA: Wild type, ParC: Wild type, mtrR: G45D, penA: Type IV NonMosaic, A517G, G543S, ponA: L421P, porB: G120K, A121D) | 0.03 | 2 | 0.125 | 16 | 0.03
2 | Neisseria gonorrhoeae isolate 2 (GyrA: Wild type, ParC: Wild type, mtrR: -35A Del, G45D, penA: Type XXII NonMosaic, A517G, ponA: L421P, porB: G120D) | ≤ 0.015 | 2 | 1 | 16 | ≤ 0.015
3 | Neisseria gonorrhoeae isolate 3 (GyrA: Wild type, ParC: Wild type, mtrR: G45D, penA: Type XXII NonMosaic, A517G, ponA: Wild type, porB: Wild type) | ≤ 0.015 | 0.25 | 0.06 | 16 | ≤ 0.015
4 | Neisseria gonorrhoeae isolate 4 (GyrA: Wild type, ParC: Wild type, mtrR: G45S, penA: Type XXII NonMosaic, A517G, ponA: L421P, porB: porB1a) | ≤ 0.015 | 0.5 | 0.25 | 16 | ≤ 0.015
5 | Neisseria gonorrhoeae isolate 5 (GyrA: Wild type, ParC: Wild type, mtrR: -35A Del, G45D, penA: Type XIX NonMosaic, A517G, ponA: Wild type, porB: G120D, A121D) | ≤ 0.015 | 0.25 | 0.25 | 16 | ≤ 0.015
6 | Neisseria gonorrhoeae isolate 6 (GyrA: Wild type, ParC: Wild type, mtrR: Wild type, penA: Type IV NonMosaic, A517G, G543S, ponA: L421P, porB: G120K, A121D) | ≤ 0.015 | > 64 | 0.125 | 16 | ≤ 0.015
7 | Neisseria gonorrhoeae isolate 7 (GyrA: Wild type, ParC: Wild type, mtrR: -35A Del, A39T, penA: Type V Nonmosaic, A517G, G543S, ponA: L421P, porB: A121D) | 0.03 | 2 | 0.25 | 16 | 0.03
8 | Neisseria gonorrhoeae isolate 8 (GyrA: Wild type, ParC: Wild type, mtrR: G45D, penA: Type IV NonMosaic, A517G, G543S, ponA: L421P, porB: G120K, A121D) | 0.03 | 2 | 0.25 | 16 | 0.03
9 | Neisseria gonorrhoeae isolate 9 (GyrA: Wild type, ParC: Wild type, mtrR: G45D, penA: Type I NonMosaic, ponA: Wild type, porB: G120N) | ≤ 0.015 | 0.125 | 0.06 | 8 | ≤ 0.015
10 | Neisseria gonorrhoeae isolate 10 (GyrA: Wild type, ParC: Wild type, mtrR: -35A Del, penA: Type II NonMosaic, A517G, ponA: Wild type, porB: G120K, A121D) | ≤ 0.015 | 32 | 0.06 | 32 | ≤ 0.015
11 | Neisseria gonorrhoeae isolate 11 (GyrA: Wild type, ParC: Wild type, mtrR: G45D, penA: Type IV NonMosaic, A517G, G543S, ponA: L421P, porB: G120K, A121D) | 0.06 | 4 | 0.125 | 32 | 0.06
12 | Neisseria gonorrhoeae isolate 12 (GyrA: Wild type, ParC: Wild type, mtrR: -35A Del, penA: Type IV NonMosaic, A517G, G543S, ponA: L421P, porB: G120K, A121D) | 0.03 | 2 | 0.25 | 32 | 0.06
13 | Neisseria gonorrhoeae isolate 13 (GyrA: Wild type, ParC: Wild type, mtrR: -35A Del, G45D, penA: Type II NonMosaic, A517G, ponA: Wild type, porB: G120D, A121D) | ≤ 0.015 | 0.125 | 0.06 | 8 | ≤ 0.015
14 | Neisseria gonorrhoeae isolate 14 (GyrA: Wild type, ParC: Wild type, mtrR: Wild type, penA: Type I NonMosaic, ponA: Wild type, porB: Wild type) | ≤ 0.015 | 1 | 0.5 | 16 | ≤ 0.015
15 | Neisseria gonorrhoeae isolate 15 (GyrA: S91F, ParC: Wild type, mtrR: G45D, penA: Type IV NonMosaic, A517G, G543S, ponA: L421P, porB: G120K, A121D) | 0.03 | 2 | 0.06 | 16 | 0.03
16 | Neisseria gonorrhoeae isolate 16 (GyrA: Wild type, ParC: Wild type, mtrR: G45D, penA: Type XIX NonMosaic, A517G, ponA: Wild type, porB: G120D, A121D) | ≤ 0.015 | 0.125 | ≤ 0.03 | 32 | ≤ 0.015

Row | Test System | MIC [1] [mg/L] | MIC [2] [mg/L] | MIC [3] [mg/L] | MIC [4] [mg/L] | MIC [5] [mg/L]
17 | Neisseria gonorrhoeae isolate 17 (GyrA: Wild type, ParC: Wild type, mtrR: G45D, penA: Type XXII NonMosaic, A517G, ponA: L421P, porB: G120D) | ≤ 0.015 | 1 | 1 | 64 | ≤ 0.015
18 | Neisseria gonorrhoeae isolate 18 (GyrA: Wild type, ParC: Wild type, mtrR: -35A Del, penA: Type XXII NonMosaic, A517G, ponA: L421P, porB: G120D, A121D) | ≤ 0.015 | 0.25 | 0.125 | 16 | ≤ 0.015
19 | Neisseria gonorrhoeae isolate 19 (GyrA: S91F, ParC: Wild type, mtrR: G45D, penA: Type IV NonMosaic, A517G, G543S, ponA: L421P, porB: Wild type) | 0.03 | 1 | 0.06 | 32 | 0.06
20 | Neisseria gonorrhoeae isolate 20 (GyrA: Wild type, ParC: Wild type, mtrR: -35A Del, G45D, penA: Type II NonMosaic, A517G, ponA: L421P, porB: G120D) | ≤ 0.015 | 1 | 0.5 | 16 | 0.03
21 | Neisseria gonorrhoeae isolate 21 (GyrA: Wild type, ParC: Wild type, mtrR: Wild type, penA: Type I NonMosaic, ponA: Wild type, porB: Wild type) | ≤ 0.015 | 0.125 | 0.06 | 32 | ≤ 0.015
22 | Neisseria gonorrhoeae isolate 22 (GyrA: Wild type, ParC: Wild type, mtrR: -35A Del, A39T, penA: Type XXII NonMosaic, A517G, ponA: Wild type, porB: Wild type) | ≤ 0.015 | 0.06 | ≤ 0.03 | 16 | ≤ 0.015
23 | Neisseria gonorrhoeae isolate 23 (GyrA: Wild type, ParC: Wild type, mtrR: -35A Del, G45D, penA: Type II NonMosaic, A517G, ponA: Wild type, porB: G120D) | 0.03 | 1 | 1 | 32 | 0.03
24 | Neisseria gonorrhoeae isolate 24 (GyrA: Wild type, ParC: Wild type, mtrR: -35A Del, penA: Type XXII NonMosaic, A517G, ponA: L421P, porB: G120D) | ≤ 0.015 | 1 | 0.25 | 32 | ≤ 0.015
25 | Neisseria gonorrhoeae isolate 25 (GyrA: Wild type, ParC: Wild type, mtrR: -35A Del, A39T, penA: Type V Nonmosaic, A517G, G543S, ponA: L421P, porB: G120K, A121D) | 0.06 | 4 | 0.25 | 32 | 0.06
26 | Neisseria gonorrhoeae isolate 26 (GyrA: Wild type, ParC: Wild type, mtrR: -35A Del, G45D, penA: Type XXII NonMosaic, A517G, ponA: L421P, porB: G120D) | ≤ 0.015 | 1 | 0.25 | 16 | ≤ 0.015
27 | Neisseria gonorrhoeae isolate 27 (GyrA: Wild type, ParC: Wild type, mtrR: G45D, penA: Type XXII NonMosaic, A517G, ponA: L421P, porB: porB1a) | ≤ 0.015 | 0.5 | ≤ 0.03 | 16 | ≤ 0.015
28 | Neisseria gonorrhoeae isolate 28 (GyrA: Wild type, ParC: Wild type, mtrR: -35A Del, penA: Type XXII NonMosaic, A517G, ponA: L421P, porB: G120K, A121D) | 0.03 | > 64 | 1 | 32 | ≤ 0.015
29 | Neisseria gonorrhoeae isolate 29 (GyrA: Wild type, ParC: Wild type, mtrR: Wild type, penA: Type I NonMosaic, ponA: Wild type, porB: Wild type) | 0.03 | 0.06 | 0.06 | 32 | 0.03
30 | Neisseria gonorrhoeae isolate 30 (GyrA: Wild type, ParC: Wild type, mtrR: -35A Del, penA: Type V Nonmosaic, A517G, G543S, ponA: L421P, porB: G120K, A121D) | 0.03 | 2 | 0.25 | 32 | 0.06
31 | Neisseria gonorrhoeae isolate 31 (GyrA: Wild type, ParC: Wild type, mtrR: A39T, penA: Type XXII NonMosaic, A517G, ponA: L421P, porB: porB1a) | ≤ 0.015 | > 64 | 0.125 | 16 | ≤ 0.015
32 | Neisseria gonorrhoeae isolate 32 (GyrA: S91F, ParC: Wild type, mtrR: G45D, penA: Type IV NonMosaic, A517G, G543S, ponA: L421P, porB: G120N) | 0.03 | 1 | 0.06 | 16 | 0.03
